# Reference: a collection of fitness landscapes (doi:10.1126/science.1257360)
# Some of the results follow.
# B1: PhoQ; a variant is named by its letters at X, in order, P23837 (parent)
# chain: MKKLLRLFFPLSLRVRFLLATAAVVLVLSLAYGMVALIGYSVSFDKTTFRLLRGESNLFYTLAKWENNKLHVELPENIDKQSPTMTLIYDENGQLLWAQRDVPWLMKMIQPDWLKSNGFHEIEADVNDTSLLLSGDHSIQQQLQEVREDDDDAEMTHSVAVNVYPATSRMPKLTIVVVDTIPVELKSSYMVWSWFIYVLSANLLLVIPLLWVAAWWSLRPIEALAKEVRELEEHNRELLNPATTRELTSLVRNLNRLLKSERERYDKYRTTLTDLTHSLKTPLXXLQXXLRSLRSEKMSVSDAEPVMLEQISRISQQIGYYLHRASMRGGTLLSRELHPVAPLLDNLTSALNKVYQRKGVNISLDISPEISFVGEQNDFVEVMGNVLDNACKYCLEFVEISARQTDEHLYIVVEDDGPGIPLSKREVIFDRGQRVDTLRPGQGVGLAVAREITEQYEGKIVAGESMLGGARMEVIFGRQHSAPKDE
# Variants of: B1
# Experiment: enrichment ratio after two sorts for PhoP signalling (ratio (wild type AVST 3.29)); higher = more functional
# Conditions: with PhoP (E. coli)
row,Variant,enrichment ratio
1,ESIN,≤ 0.25
2,QDGL,≤ 0.25
3,PKCV,≤ 0.25
4,MKGY,≤ 0.25
5,EEQL,≤ 0.25
6,FRSM,≤ 0.25
7,GGEV,≤ 0.25
8,KYNN,≤ 0.25
9,QMTY,≤ 0.25
10,GSFF,≤ 0.25
11,RSSD,≤ 0.25
12,GYNF,≤ 0.25
13,THCK,≤ 0.25
14,SLEN,≤ 0.25
15,HTVR,≤ 0.25
16,SGCH,8.61
17,WFPM,≤ 0.25
18,PELF,≤ 0.25
19,ASYS,≤ 0.25
20,DIIA,≤ 0.25
21,PDVK,≤ 0.25
22,DYVV,≤ 0.25
23,LDWG,≤ 0.25
24,TWIF,≤ 0.25

row,Variant,enrichment ratio
1,HLPL,≤ 0.25
2,VLVQ,≤ 0.25
3,EHWT,≤ 0.25
4,HTFD,≤ 0.25
5,YQGF,≤ 0.25
6,YCFY,≤ 0.25
7,PCDA,≤ 0.25
8,IRHR,≤ 0.25
9,NLLW,≤ 0.25
10,HMDV,≤ 0.25
11,VVQF,≤ 0.25
12,WCLF,≤ 0.25
13,PQFW,≤ 0.25
14,YMGP,≤ 0.25
15,QNLT,≤ 0.25
16,LLTS,≤ 0.25
17,NTLV,≤ 0.25
18,NERP,≤ 0.25
19,VPTG,≤ 0.25
20,HFPL,≤ 0.25
21,HGQY,≤ 0.25
22,DFIT,≤ 0.25
23,RRID,≤ 0.25
24,GTCL,9.42

row,Variant,enrichment ratio
1,QESP,≤ 0.25
2,DFDC,≤ 0.25
3,NRPY,≤ 0.25
4,EEVL,≤ 0.25
5,TWAN,≤ 0.25
6,LNYG,≤ 0.25
7,LGAH,≤ 0.25
8,FKSP,≤ 0.25
9,GEQA,≤ 0.25
10,FFCY,≤ 0.25
11,LHQV,≤ 0.25
12,FGHC,≤ 0.25
13,KTDG,≤ 0.25
14,VVGQ,≤ 0.25
15,FLAN,≤ 0.25
16,VQCF,≤ 0.25
17,DMIW,≤ 0.25
18,HKDH,≤ 0.25
19,LPFC,≤ 0.25
20,TMGY,≤ 0.25
21,MMPG,≤ 0.25
22,KKFF,≤ 0.25
23,AHDS,≤ 0.25
24,VMQV,≤ 0.25

row,Variant,enrichment ratio
1,ENHV,≤ 0.25
2,MKRA,≤ 0.25
3,EDTS,≤ 0.25
4,THVK,≤ 0.25
5,SIHQ,≤ 0.25
6,GSMG,4.19
7,ADGN,≤ 0.25
8,PNNF,≤ 0.25
9,ATYG,≤ 0.25
10,HIMV,≤ 0.25
11,KPDD,≤ 0.25
12,PRLH,≤ 0.25
13,VWDN,≤ 0.25
14,WFPT,≤ 0.25
15,IAHQ,≤ 0.25
16,KGSL,≤ 0.25
17,YFFY,≤ 0.25
18,WAFT,≤ 0.25
19,KAWQ,≤ 0.25
20,YSAG,≤ 0.25
21,LDIE,≤ 0.25
22,KRFI,≤ 0.25
23,ELRW,≤ 0.25
24,IIHK,≤ 0.25

row,Variant,enrichment ratio
1,HRIP,≤ 0.25
2,RFIR,≤ 0.25
3,QLIL,≤ 0.25
4,WQLV,≤ 0.25
5,GFKI,≤ 0.25
6,QTLP,≤ 0.25
7,NKES,≤ 0.25
8,IFKW,≤ 0.25
9,NKLY,≤ 0.25
10,IDMW,≤ 0.25
11,TEWL,21.7
12,CFVR,≤ 0.25
13,RWSY,≤ 0.25
14,TDEM,≤ 0.25
15,WCRN,≤ 0.25
16,LQFP,≤ 0.25
17,THIG,≤ 0.25
18,EWIS,≤ 0.25
19,HDPE,≤ 0.25
20,WVFF,≤ 0.25
21,EWNS,≤ 0.25
22,WGWM,≤ 0.25
23,KCNK,≤ 0.25
24,DRWD,≤ 0.25

row,Variant,enrichment ratio
1,MHNN,≤ 0.25
2,HYFK,≤ 0.25
3,FDCF,≤ 0.25
4,HLRC,≤ 0.25
5,LHEQ,≤ 0.25
6,RGIT,≤ 0.25
7,YCGS,0.294
8,NSCI,≤ 0.25
9,QKCQ,≤ 0.25
10,MVVY,≤ 0.25
11,DGRD,≤ 0.25
12,VFMI,≤ 0.25
13,PAPI,≤ 0.25
14,HYVN,≤ 0.25
15,RIPL,≤ 0.25
16,HNFH,≤ 0.25
17,WKQR,≤ 0.25
18,IVGF,≤ 0.25
19,HFGY,≤ 0.25
20,ENTR,≤ 0.25
21,YHWR,≤ 0.25
22,EMMS,≤ 0.25
23,IDPE,≤ 0.25
24,ATYS,0.76

row,Variant,enrichment ratio
1,AMSE,4.51
2,KLQK,≤ 0.25
3,ETCE,≤ 0.25
4,DHVN,≤ 0.25
5,RTHQ,≤ 0.25
6,TVIF,≤ 0.25
7,DQCL,≤ 0.25
8,TKIK,≤ 0.25
9,GHDM,≤ 0.25
10,KALL,≤ 0.25
11,EPYK,≤ 0.25
12,VKPD,≤ 0.25
13,VIVT,≤ 0.25
14,FYDS,0.288
15,DGMA,≤ 0.25
16,GACM,12.2
17,PSAR,≤ 0.25
18,FGWL,≤ 0.25
19,EGKS,≤ 0.25
20,VSTH,≤ 0.25
21,AKGH,≤ 0.25
22,KKTA,≤ 0.25
23,MIPQ,≤ 0.25
24,YQIK,≤ 0.25

row,Variant,enrichment ratio
1,YMIP,≤ 0.25
2,EYHI,≤ 0.25
3,DPAV,≤ 0.25
4,SLNQ,≤ 0.25
5,YYDQ,≤ 0.25
6,HQDL,≤ 0.25
7,WAMK,1.98
8,YALF,3.8
9,WDSS,≤ 0.25
10,DNMY,≤ 0.25
11,NFTE,≤ 0.25
12,HPRP,≤ 0.25
13,TSFW,≤ 0.25
14,VPNS,≤ 0.25
15,ANKN,≤ 0.25
16,TGVC,16.8
17,ERRR,≤ 0.25
18,RSRY,≤ 0.25
19,LQED,≤ 0.25
20,LVFQ,≤ 0.25
21,IKNY,≤ 0.25
22,FNIF,≤ 0.25
23,GLND,≤ 0.25
24,QVHL,≤ 0.25

row,Variant,enrichment ratio
1,SLGE,1.74
2,KQWG,≤ 0.25
3,MKCS,≤ 0.25
4,QFYS,≤ 0.25
5,VHQY,≤ 0.25
6,AYDH,≤ 0.25
7,IGPI,≤ 0.25
8,HIVK,≤ 0.25
9,SHWQ,≤ 0.25
10,MNSQ,≤ 0.25
11,ARDV,≤ 0.25
12,KGVP,≤ 0.25
13,WFEG,≤ 0.25
14,DNVP,≤ 0.25
15,YCTQ,0.38
16,SFIK,≤ 0.25
17,LMTW,≤ 0.25
18,SDQD,≤ 0.25
19,RLTN,≤ 0.25
20,FMDI,≤ 0.25
21,PKGI,≤ 0.25
22,VQGM,≤ 0.25
23,SPNW,≤ 0.25
24,KHYG,≤ 0.25

row,Variant,enrichment ratio
1,DKFD,≤ 0.25
2,VHFM,≤ 0.25
3,RQHF,≤ 0.25
4,TCMA,15.5
5,GLYQ,≤ 0.25
6,LRPL,≤ 0.25
7,NMRF,≤ 0.25
8,GNDD,≤ 0.25
9,DCIC,≤ 0.25
10,FINN,≤ 0.25
11,GWCE,≤ 0.25
12,RMKA,≤ 0.25
13,LQNG,≤ 0.25
14,WNPW,≤ 0.25
15,KSHP,≤ 0.25
16,WQTW,≤ 0.25
17,ILDS,≤ 0.25
18,FDAQ,≤ 0.25
19,NKWS,≤ 0.25
20,YKWH,≤ 0.25
21,HDPT,≤ 0.25
22,NGQY,≤ 0.25
23,YLMY,≤ 0.25
24,YYMY,≤ 0.25

row,Variant,enrichment ratio
1,SVRQ,≤ 0.25
2,TRGR,≤ 0.25
3,YENY,≤ 0.25
4,RGSQ,≤ 0.25
5,GLLD,≤ 0.25
6,WRCH,≤ 0.25
7,SSKK,≤ 0.25
8,PDHH,≤ 0.25
9,VKSI,≤ 0.25
10,VIRM,≤ 0.25
11,LHFN,≤ 0.25
12,TRDS,≤ 0.25
13,FQDR,≤ 0.25
14,EMPI,≤ 0.25
15,TLDT,≤ 0.25
16,WQRP,≤ 0.25
17,EGII,≤ 0.25
18,PMWN,≤ 0.25
19,DTQY,≤ 0.25
20,RQNG,≤ 0.25
21,IVIE,≤ 0.25
22,QGLW,≤ 0.25
23,IKCQ,≤ 0.25
24,SHNE,≤ 0.25

row,Variant,enrichment ratio
1,WDCD,≤ 0.25
2,AIMR,16.6
3,KCPN,≤ 0.25
4,IRTC,0.402
5,VCND,≤ 0.25
6,WMSY,≤ 0.25
7,STKE,≤ 0.25
8,HCWK,≤ 0.25
9,NMFN,≤ 0.25
10,APMS,≤ 0.25
11,KENN,≤ 0.25
12,LCFD,≤ 0.25
13,YHVC,≤ 0.25
14,GPIC,≤ 0.25
15,CYMR,≤ 0.25
16,YSEG,≤ 0.25
17,MYVY,≤ 0.25
18,GSAW,≤ 0.25
19,MQIG,≤ 0.25
20,LMWW,≤ 0.25
21,FWGS,≤ 0.25
22,AHGK,≤ 0.25
23,GKEL,≤ 0.25
24,HSAH,≤ 0.25

row,Variant,enrichment ratio
1,ITVY,≤ 0.25
2,RFPH,≤ 0.25
3,ARNK,≤ 0.25
4,WNME,≤ 0.25
5,HYMW,≤ 0.25
6,FDKA,≤ 0.25
7,IFSG,≤ 0.25
8,IELK,≤ 0.25
9,YPNL,≤ 0.25
10,VLAS,≤ 0.25
11,QLAF,≤ 0.25
12,HDAH,≤ 0.25
13,IQAQ,0.98
14,MGCR,≤ 0.25
15,SSPA,≤ 0.25
16,TQLE,4.93
17,WGCW,≤ 0.25
18,THGF,8.21
